Results reported in ChEMBL document CHEMBL5674866 (J Biol Chem, 2015).

Experiments:
[1] = molecular target: Protein kinase C theta type (Homo sapiens, UniProt Q04759); assay: Inhibition of PRKCQ (unknown origin) by discoverX kinome scan assay
Estrogen receptor = Estrogen receptor (Homo sapiens, UniProt P03372); assay: Inhibition of human ER-alpha by Eurofins-CEREP pharmacology platform analysis
MX1 = assay: Antiproliferative activity against human MX1 cells measured after 7 day by celltitre-glo luminescent assay; assay type: functional, cell-based; settings: MX1, 168 h
[2] = molecular target: Serine/threonine-protein kinase 26 (Homo sapiens, UniProt Q9P289); assay: Inhibition of human MST4 by discoverX kinome scan assay
UniProt Q9P289, sequence (Q9P289 whole entry): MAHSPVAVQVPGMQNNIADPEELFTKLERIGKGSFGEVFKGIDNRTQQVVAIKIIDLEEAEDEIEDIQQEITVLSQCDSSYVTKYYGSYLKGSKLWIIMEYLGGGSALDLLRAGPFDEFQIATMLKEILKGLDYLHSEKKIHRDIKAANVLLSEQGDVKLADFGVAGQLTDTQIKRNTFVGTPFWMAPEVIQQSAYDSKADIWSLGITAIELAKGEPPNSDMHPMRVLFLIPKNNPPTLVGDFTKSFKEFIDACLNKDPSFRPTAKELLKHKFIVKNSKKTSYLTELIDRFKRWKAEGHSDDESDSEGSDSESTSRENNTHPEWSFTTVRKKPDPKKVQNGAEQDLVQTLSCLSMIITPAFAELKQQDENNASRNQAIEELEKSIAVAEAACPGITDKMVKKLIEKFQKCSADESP

[3] = molecular target: Phosphatidylinositol 5-phosphate 4-kinase type-2 gamma (Homo sapiens, UniProt Q8TBX8); assay: Inhibition of human PIP5K2C by discoverX kinome scan assay
[4] = molecular target: Serine/threonine-protein kinase 38 (Homo sapiens, UniProt Q15208); assay: Inhibition of human NDR1 by discoverX kinome scan assay
[5] = molecular target: Serine/threonine-protein kinase PAK 4 (Homo sapiens, UniProt O96013); assay: Inhibition of human PAK4 by discoverX kinome scan assay
[6] = molecular target: Serine/threonine-protein kinase D1 (Homo sapiens, UniProt Q15139); assay: Inhibition of PRKD1 (unknown origin) by discoverX kinome scan assay
UniProt Q15139, sequence (Q15139 whole entry): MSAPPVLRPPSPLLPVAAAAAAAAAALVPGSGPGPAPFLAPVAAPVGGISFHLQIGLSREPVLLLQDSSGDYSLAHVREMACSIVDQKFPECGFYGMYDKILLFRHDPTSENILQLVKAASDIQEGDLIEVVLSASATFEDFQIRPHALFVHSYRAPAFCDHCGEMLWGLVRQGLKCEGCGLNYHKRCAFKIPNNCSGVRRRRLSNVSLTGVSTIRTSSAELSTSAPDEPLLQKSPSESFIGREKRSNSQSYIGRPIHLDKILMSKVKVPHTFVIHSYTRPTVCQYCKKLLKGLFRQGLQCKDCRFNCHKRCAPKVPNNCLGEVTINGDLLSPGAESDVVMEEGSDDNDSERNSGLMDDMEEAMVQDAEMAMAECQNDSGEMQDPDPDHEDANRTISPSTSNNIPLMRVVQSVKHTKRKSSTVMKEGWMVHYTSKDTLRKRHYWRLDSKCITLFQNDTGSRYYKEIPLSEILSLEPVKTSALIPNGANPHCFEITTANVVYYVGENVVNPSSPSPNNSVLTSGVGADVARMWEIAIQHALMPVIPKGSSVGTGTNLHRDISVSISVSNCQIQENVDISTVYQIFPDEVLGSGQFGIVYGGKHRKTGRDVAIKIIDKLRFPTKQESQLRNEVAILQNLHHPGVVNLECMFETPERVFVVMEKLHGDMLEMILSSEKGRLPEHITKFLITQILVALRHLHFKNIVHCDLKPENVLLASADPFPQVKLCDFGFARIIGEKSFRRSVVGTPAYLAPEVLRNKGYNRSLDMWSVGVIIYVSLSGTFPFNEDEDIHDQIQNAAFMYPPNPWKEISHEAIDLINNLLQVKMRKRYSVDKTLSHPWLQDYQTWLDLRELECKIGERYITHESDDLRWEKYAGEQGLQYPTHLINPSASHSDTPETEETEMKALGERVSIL

KYSE-150 cell line [7] = assay: Effect on cellular post-translational modifications on histone H3 (TKQTAR) - K4 unmethylated in human KYSE-150 cells assessed as fold change by mass spectrometric analysis; assay type: functional
In short: (§1)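 Histones acid-extracted from SMYD2-overexpressing KYSE-150 cells treated with vehicle or 5 μM inhibitor. Samples derivatized with propionic anhydride, then trypsin-digested for 6 h at 37 °C. Each modification's relative abundance on a peptide sequence, as a percentage, was quantified from MS and MS/MS spectra and compared with vehicle.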

KYSE-150 cell line [8] = assay: Effect on cellular post-translational modifications on histone H3 (EIAQDFKTDLR) - K79 unmethylated in human KYSE-150 cells assessed as fold change by mass spectrometric analysis; assay type: functional
[9] = molecular target: Phosphatidylinositol 4,5-bisphosphate 3-kinase catalytic subunit delta isoform (Homo sapiens, UniProt O00329); assay: Inhibition of human PIK3CD by discoverX kinome scan assay
UniProt O00329, sequence (O00329 whole entry, canonical isoform): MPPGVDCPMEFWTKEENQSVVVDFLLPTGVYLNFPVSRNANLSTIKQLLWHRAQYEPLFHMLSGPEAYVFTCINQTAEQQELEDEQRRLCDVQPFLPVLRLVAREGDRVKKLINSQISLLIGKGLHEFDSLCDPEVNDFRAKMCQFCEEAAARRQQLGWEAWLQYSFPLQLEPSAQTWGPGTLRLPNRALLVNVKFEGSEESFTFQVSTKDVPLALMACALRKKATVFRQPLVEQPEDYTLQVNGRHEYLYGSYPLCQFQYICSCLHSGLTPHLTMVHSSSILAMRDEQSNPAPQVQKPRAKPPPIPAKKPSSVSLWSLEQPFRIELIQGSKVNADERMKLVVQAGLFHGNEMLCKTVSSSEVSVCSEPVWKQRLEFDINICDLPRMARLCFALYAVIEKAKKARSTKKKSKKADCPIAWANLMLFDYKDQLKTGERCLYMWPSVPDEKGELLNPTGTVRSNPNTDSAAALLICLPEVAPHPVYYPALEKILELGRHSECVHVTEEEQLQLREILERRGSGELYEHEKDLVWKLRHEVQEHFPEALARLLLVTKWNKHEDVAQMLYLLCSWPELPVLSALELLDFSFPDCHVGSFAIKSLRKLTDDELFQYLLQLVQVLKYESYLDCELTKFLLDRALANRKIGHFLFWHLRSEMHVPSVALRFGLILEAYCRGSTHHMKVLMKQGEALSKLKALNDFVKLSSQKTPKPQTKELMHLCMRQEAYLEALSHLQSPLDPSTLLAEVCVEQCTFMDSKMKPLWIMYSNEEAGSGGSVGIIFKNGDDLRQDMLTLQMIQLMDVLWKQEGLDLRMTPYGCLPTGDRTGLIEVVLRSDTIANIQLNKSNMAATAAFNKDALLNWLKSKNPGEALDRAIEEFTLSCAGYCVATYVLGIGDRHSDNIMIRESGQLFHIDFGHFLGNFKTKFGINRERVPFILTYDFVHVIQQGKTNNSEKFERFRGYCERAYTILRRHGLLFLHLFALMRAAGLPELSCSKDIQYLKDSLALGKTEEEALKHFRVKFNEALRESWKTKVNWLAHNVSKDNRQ

[10] = molecular target: Phosphatidylinositol 4,5-bisphosphate 3-kinase catalytic subunit alpha isoform (Homo sapiens, UniProt P42336, C420R); assay: Inhibition of human PIK3CA C420R mutant by discoverX kinome scan assay
[11] = molecular target: Phosphatidylinositol 4,5-bisphosphate 3-kinase catalytic subunit alpha isoform (Homo sapiens, UniProt P42336, E545K); assay: Inhibition of human PIK3CA E545K mutant by discoverX kinome scan assay
KYSE-150 cell line [12] = assay: Effect on cellular post-translational modifications on histone H3 (KSTGGKAPR) - K9 trimethylated, K14 unmethylated in human KYSE-150 cells assessed as fold change by mass spectrometric analysis; assay type: functional; in short: as §1
[13] = molecular target: Serine/threonine-protein kinase PAK 3 (Homo sapiens, UniProt O75914); assay: Inhibition of human PAK3 by discoverX kinome scan assay
[14] = molecular target: Myosin light chain kinase, smooth muscle (Homo sapiens, UniProt Q15746); assay: Inhibition of human MYLK by discoverX kinome scan assay
[15] = molecular target: Serine/threonine-protein kinase MRCK alpha (Homo sapiens, UniProt Q5VT25); assay: Inhibition of human MRCKA by discoverX kinome scan assay
[16] = molecular target: Cyclin-dependent kinase 16 (Homo sapiens, UniProt Q00536); assay: Inhibition of human PCTK1 by discoverX kinome scan assay
UniProt Q00536, sequence (Q00536 whole entry): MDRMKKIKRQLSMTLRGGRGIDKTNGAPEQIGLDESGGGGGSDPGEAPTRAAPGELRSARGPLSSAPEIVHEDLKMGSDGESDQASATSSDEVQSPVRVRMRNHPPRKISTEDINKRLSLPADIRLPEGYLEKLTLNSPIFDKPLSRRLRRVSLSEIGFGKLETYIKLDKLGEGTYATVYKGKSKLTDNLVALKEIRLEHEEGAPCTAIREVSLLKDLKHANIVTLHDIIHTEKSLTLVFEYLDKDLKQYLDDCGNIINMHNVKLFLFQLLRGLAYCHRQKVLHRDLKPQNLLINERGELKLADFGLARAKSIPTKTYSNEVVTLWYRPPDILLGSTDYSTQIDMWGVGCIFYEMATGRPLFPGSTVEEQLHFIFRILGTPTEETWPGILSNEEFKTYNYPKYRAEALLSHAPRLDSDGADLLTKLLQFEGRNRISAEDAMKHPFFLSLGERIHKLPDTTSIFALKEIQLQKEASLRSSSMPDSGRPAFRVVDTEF

[17] = molecular target: Protein kinase C delta type (Homo sapiens, UniProt Q05655); assay: Inhibition of human PRKCD by discoverX kinome scan assay
UniProt Q05655, sequence (Q05655 whole entry): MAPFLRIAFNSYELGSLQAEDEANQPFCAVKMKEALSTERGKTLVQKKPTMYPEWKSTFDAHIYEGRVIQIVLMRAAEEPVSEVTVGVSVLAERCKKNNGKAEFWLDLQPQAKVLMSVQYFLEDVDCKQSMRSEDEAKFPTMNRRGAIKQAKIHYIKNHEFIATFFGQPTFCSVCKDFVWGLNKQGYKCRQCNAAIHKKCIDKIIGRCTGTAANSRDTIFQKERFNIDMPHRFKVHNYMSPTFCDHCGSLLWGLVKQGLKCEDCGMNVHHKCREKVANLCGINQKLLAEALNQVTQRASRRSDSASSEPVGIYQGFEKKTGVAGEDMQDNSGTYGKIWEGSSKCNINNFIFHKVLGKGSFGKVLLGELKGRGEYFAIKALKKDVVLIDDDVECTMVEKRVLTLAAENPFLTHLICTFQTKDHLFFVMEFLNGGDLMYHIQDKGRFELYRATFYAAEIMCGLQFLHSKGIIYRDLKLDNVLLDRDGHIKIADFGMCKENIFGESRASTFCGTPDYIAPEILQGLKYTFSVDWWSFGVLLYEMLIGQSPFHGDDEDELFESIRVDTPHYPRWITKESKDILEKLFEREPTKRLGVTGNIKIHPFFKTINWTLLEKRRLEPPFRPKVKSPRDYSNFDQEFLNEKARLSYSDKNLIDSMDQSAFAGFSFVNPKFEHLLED

[18] = molecular target: Serine/threonine-protein kinase D3 (Homo sapiens, UniProt O94806); assay: Inhibition of PRKD3 (unknown origin) by discoverX kinome scan assay
[19] = molecular target: Phosphatidylinositol 4,5-bisphosphate 3-kinase catalytic subunit alpha isoform (Homo sapiens, UniProt P42336, H1047L); assay: Inhibition of human PIK3CA H1047L mutant by discoverX kinome scan assay
[20] = Inhibition of human FLT3 autoinhibited mutant by discoverX kinome scan assay
[21] = molecular target: Membrane-associated tyrosine- and threonine-specific cdc2-inhibitory kinase (Homo sapiens, UniProt Q99640); assay: Inhibition of human PKMYT1 by discoverX kinome scan assay
UniProt Q99640, sequence (Q99640 whole entry): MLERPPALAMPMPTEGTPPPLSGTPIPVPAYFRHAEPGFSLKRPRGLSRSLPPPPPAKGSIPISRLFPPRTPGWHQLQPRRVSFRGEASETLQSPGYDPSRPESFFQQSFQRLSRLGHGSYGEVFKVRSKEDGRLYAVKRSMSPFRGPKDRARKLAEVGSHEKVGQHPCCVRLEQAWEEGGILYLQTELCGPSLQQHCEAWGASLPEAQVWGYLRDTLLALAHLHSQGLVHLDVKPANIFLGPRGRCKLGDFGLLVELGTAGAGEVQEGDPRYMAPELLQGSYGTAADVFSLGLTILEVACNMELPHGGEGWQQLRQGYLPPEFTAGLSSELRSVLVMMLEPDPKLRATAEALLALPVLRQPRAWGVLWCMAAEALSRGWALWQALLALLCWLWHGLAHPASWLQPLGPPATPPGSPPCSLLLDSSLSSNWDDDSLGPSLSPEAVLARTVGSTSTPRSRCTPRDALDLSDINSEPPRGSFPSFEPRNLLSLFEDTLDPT

KYSE-150 cell line [22] = assay: Effect on cellular post-translational modifications on histone H4 (KVLR) - K20 monomethylated in human KYSE-150 cells assessed as relative abundance at 5 by mass spectrometric analysis (reference value: 27.4+/-8); assay type: functional; settings: dose 5 µM; in short: as §1
KYSE-270 = assay: Antiproliferative activity against human KYSE-270 cells measured after 7 day by celltitre-glo luminescent assay; assay type: functional, cell-based; settings: KYSE-270, 168 h
[23] = Inhibition of human KIT-autoinhibited by discoverX kinome scan assay
KYSE-150 cell line [24] = assay: Effect on cellular post-translational modifications on histone H3 (KSTGGKAPR) - K9 acetylated, K14 unmethylated in human KYSE-150 cells assessed as fold change by mass spectrometric analysis; assay type: functional
[25] = molecular target: Serine/threonine-protein kinase 4 (Homo sapiens, UniProt Q13043); assay: Inhibition of human MST1 by discoverX kinome scan assay
[26] = molecular target: Phosphatidylinositol 4,5-bisphosphate 3-kinase catalytic subunit alpha isoform (Homo sapiens, UniProt P42336, E545A); assay: Inhibition of human PIK3CA E545A mutant by discoverX kinome scan assay
[27] = molecular target: Serine/threonine-protein kinase Nek3 (Homo sapiens, UniProt P51956); assay: Inhibition of human NEK3 by discoverX kinome scan assay
[28] = molecular target: Serine/threonine-protein kinase Nek9 (Homo sapiens, UniProt Q8TD19); assay: Inhibition of human NEK9 by discoverX kinome scan assay
[29] = molecular target: Protein kinase C iota type (Homo sapiens, UniProt P41743); assay: Inhibition of PRKCI (unknown origin) by discoverX kinome scan assay
[30] = molecular target: Phosphatidylinositol 4,5-bisphosphate 3-kinase catalytic subunit alpha isoform (Homo sapiens, UniProt P42336, Q546K); assay: Inhibition of human PIK3CA Q546K mutant by discoverX kinome scan assay
[31] = molecular target: Serine/threonine-protein kinase Nek7 (Homo sapiens, UniProt Q8TDX7); assay: Inhibition of human NEK7 by discoverX kinome scan assay
UniProt Q8TDX7, sequence (Q8TDX7 whole entry): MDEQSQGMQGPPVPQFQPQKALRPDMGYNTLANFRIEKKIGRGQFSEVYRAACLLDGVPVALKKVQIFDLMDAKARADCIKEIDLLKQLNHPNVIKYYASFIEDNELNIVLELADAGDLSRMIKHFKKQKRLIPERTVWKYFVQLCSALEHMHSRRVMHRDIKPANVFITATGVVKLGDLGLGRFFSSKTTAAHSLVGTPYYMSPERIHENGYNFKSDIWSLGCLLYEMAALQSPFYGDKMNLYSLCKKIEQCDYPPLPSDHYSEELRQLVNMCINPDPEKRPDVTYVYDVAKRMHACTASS

KYSE-150 cell line [32] = assay: Effect on cellular post-translational modifications on histone H3 (KSTGGKAPR) - K9 monomethylated, K14 unmethylated in human KYSE-150 cells assessed as fold change by mass spectrometric analysis; assay type: functional
KYSE-150 cell line [33] = assay: Effect on cellular post-translational modifications on histone H3 (KSTGGKAPR) - K9 unmethylated, K14 acetylated in human KYSE-150 cells assessed as relative abundance at 5 by mass spectrometric analysis (reference value: 4.3+/-0.7No_unit); assay type: functional; settings: dose 5 µM; in short: as §1
KYSE-150 cell line [34] = assay: Effect on cellular post-translational modifications on histone H3 (KSTGGKAPR) - K9 acetylated, K14 unmethylated in human KYSE-150 cells assessed as relative abundance at 5 by mass spectrometric analysis (reference value: 2.1+/-0.9); assay type: functional; settings: dose 5 µM

UniProt P03372, sequence (P03372 whole entry, looked up): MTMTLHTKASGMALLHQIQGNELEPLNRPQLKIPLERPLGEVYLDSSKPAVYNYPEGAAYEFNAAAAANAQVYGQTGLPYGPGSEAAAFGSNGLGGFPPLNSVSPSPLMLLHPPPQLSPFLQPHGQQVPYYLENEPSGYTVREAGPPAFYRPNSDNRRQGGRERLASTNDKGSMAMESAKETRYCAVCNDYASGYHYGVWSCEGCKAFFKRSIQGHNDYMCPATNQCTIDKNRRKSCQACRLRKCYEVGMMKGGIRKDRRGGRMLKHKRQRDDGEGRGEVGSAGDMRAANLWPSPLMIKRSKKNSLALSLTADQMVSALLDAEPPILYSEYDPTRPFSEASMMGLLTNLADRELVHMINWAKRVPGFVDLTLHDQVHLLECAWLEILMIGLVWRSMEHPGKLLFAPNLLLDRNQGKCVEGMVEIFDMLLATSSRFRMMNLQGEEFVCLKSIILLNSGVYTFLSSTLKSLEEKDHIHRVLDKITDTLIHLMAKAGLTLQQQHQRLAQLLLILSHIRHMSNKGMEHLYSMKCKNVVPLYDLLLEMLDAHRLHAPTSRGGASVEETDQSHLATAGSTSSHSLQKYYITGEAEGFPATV

## Cc1cn(CCN2CCN(c3ccccc3-c3cc(C#N)cc(C(=O)NCCCN4CCCC4)c3)CC2)c2ccccc12
[1]
  IC50: > 20 µM
Estrogen receptor
  IC50: > 10 µM
MX1
  IC50: 0.3 µM
[2]
  IC50: > 20 µM
[3]
  IC50: > 20 µM
[4]
  IC50: > 20 µM
[5]
  IC50: > 20 µM
[6]
  IC50: > 20 µM
KYSE-150 cell line [7]
  fold change (FC): 1
KYSE-150 cell line [8]
  fold change (FC): 1.1
[9]
  IC50: > 20 µM
[10]
  IC50: > 20 µM
[11]
  IC50: > 20 µM
KYSE-150 cell line [12]
  fold change (FC): 1.1
[13]
  IC50: > 20 µM
[14]
  IC50: > 20 µM
[15]
  IC50: > 20 µM
[16]
  IC50: > 20 µM
[17]
  IC50: > 20 µM
[18]
  IC50: > 20 µM
[19]
  IC50: > 20 µM
[20]
  IC50: > 20 µM
[21]
  IC50: > 20 µM
KYSE-150 cell line [22]
  Activity: 31
KYSE-270
  IC50: 0.3 µM
[23]
  IC50: > 20 µM
KYSE-150 cell line [24]
  fold change (FC): 0.9
[25]
  IC50: > 20 µM
[26]
  IC50: > 20 µM
[27]
  IC50: > 20 µM
[28]
  IC50: > 20 µM
[29]
  IC50: > 20 µM
[30]
  IC50: > 20 µM
[31]
  IC50: > 20 µM
KYSE-150 cell line [32]
  fold change (FC): 0.8
KYSE-150 cell line [33]
  Activity: 4.5
KYSE-150 cell line [34]
  Activity: 2.5
